# Data as given in the supplement of paper PMC12632987.
# Over roughly 2,300 sequences, “median log2 fold change of GCK-ALFA target abundance (FLAG IP / Myc IP barcode read proportion)” has its median near 0.095; the lowest 2% begin near -0.47. The list shows a part of the results.
# B1: LC3A_147_504 (protein)
# chain: VKLEVYIDIITKNATEEVKEFVKEIEKELKEKGFEVKVKIKIEKLDEDTDYIEIEIEIKAETEEKAKEAANYIIDKFEEFEEKNKDKILGSLISVEIEKE
# B2: LC3A_3_1762 (protein)
# chain: MEAFIEAAAKELKEAGASEELIEKASRALRLLLERGLEETAKEFVKVLLELLKKSEELALDLAEDVLTLLETSTLSPEELAKAVRSEMNAALSEAEIEEL
# B3: LC3A_free_2_2173 (protein)
# chain: MKYELTVDALGKAEDAARLVKAIVDEGVDVEVKLEDGTVLKATAETVDEVVAYLLSLDREVFLELTAVTDKEKAEKTEKALDEVADETGISMLISIEELE
# B4: LC3A_free_0_2100 (protein)
# chain: MVTKVEVLGIIPDKSAKEAAEAIKEKLEEYGKKLSEEKGWKVTVELTEVDGSYVITVTIEGEGMSIEEGLEIADEIADLIEELAKEHGVEVTIYESVYEE
# B5: LC3A_28_1257 (protein)
# chain: SPLDENLKKAIEEVKEAVEKGEEAVVTITVPAGITEEEIEKVIKTMEEIAELGKSLKRLTIIIDVEAGVKQEHIDKLADKGEELEKKYPNLTVIIALEEE
# B6: LC3A_28_1129 (protein)
# chain: MTAEEVIKRAEEEAEKAIKAKEDAYIEVTIPESFTKEDVERIAERLKELAKKIAEVSKVNIVVTFESEKVLPHADIFADTFEELEKEYPNVNVILALPET
# B7: LC3A_free_0_2116 (protein)
# chain: KKTVVEVLVILDESTTEEEAKKAYEELKKKAEEIAKKYGWEVKVELSKSDGSWIITVTLTSDSTDIDKALEIARELSDAAEEIAKELGLDATIYESVYLE
# B8: LC3A_3_1674 (protein)
# chain: MEEVIGRLLEAERARGASEEDLAALREALERLLEVSSERVVETLVRLLLEIEDVPVADKIALVRDIVYEIEKNNLSEEEQIALVEREVTALRNGTEIEEL
# B9: LC3A_3_1884 (protein)
# chain: MEEEIKATLEELKAAGASEETLAAFLRVVELLKERGYEEALKTLIEEVRKLIGLPDELLLAFLEEVLETLETEDLDEEELIERIKEIARLTRNEAEIEEL
# B10: LC3A_28_1156 (protein)
# chain: SHIDEEIERARAELEAAIAAGEDAVITIKVTGEATQEDIEKLIKALEELAELGEKHGITSIIIDVDEKVKQEHIDKLADAAEEIEAKYPNITIIIALSDE
# B11: LC3A_28_705 (protein)
# chain: MELEKNIEEALKRAKEAAEKGEEEVIEIKVPSTATEEDIEKVIEALKEIAEIVKDLKRTSIIIDVEGGVKQEYIDKLIDAGEEIEKKYPNVTVIFALDEE
# B12: LC3A_3_1662 (protein)
# chain: AEELIEETLAWLREQGRSEETLEAAREAMTALKEKGYYEALETFAELLRELADLSDELLLELAEEVLELVETSDLDEESMTEEIREIARTIRSEAEIEEL
# B13: LC3A_3_1473 (protein)
# chain: LDEKLEATLAKLKAAGASEEVLEAVRKAYEKLKELGFEEAAKTFIEEMDKLVGLPSELLLWFAEEVLRAVEKYKNDEEKLIEEIKKIAAATRAEAEIIEL
# B14: LC3A_3_1831 (protein)
# chain: MEEELEETIKLLKEAGHSEETIEKLKETVEKLLERGYEEAAKTLLELVKKAIHLPSELLLEALEEILEYIEENDDSEEEVTEKIKEIFNLYENEYEIEEL
# B15: LC3A_3_1798 (protein)
# chain: MEEKREKLLKLLKEAGKSEEVIEAARETLEALIEKGYEEAYKTLVEELEKLKDIPDEILLEMLEEVLRLVKEEDLSEEELTERIKELARLARLESEIEEL
# B16: LC3A_free_8_2546 (protein)
# chain: DVQAFADALSKLLDELEEEIEKKAKELGLDRLDILDLSLLVGETIAEALDASEEGQEAALEAAKKGLEEVIEYAKSLSPELAKFVKEKSEEVLKKAEELL
# B17: LC3A_3_1725 (protein)
# chain: MEEIKKEILEELEKQGKSKETIEAAKKLLDALEKKGFLEAAKTLLEEIKKAKNVSSETLLAALEDLLYIVENEDLDEEEVIEEIKREFRVALEEEEIEEL
# B18: LC3A_28_964 (protein)
# chain: SELEEQLKKVLEEAKEAAAKGEAKVFTITVPGTADEEDIEKVIKTIREIAELLKDVKGSAIIVSVEAGVKQEHIDKLVDTLEEIEKKYPNITAILALDED
# B19: LC3A_28_1055 (protein)
# chain: SAVEEQIKKALEEAKELAAKGEEALIEIEIEEDDTEEDVEKKLKTIEEIAEINKDLPSTSIIVNVNNKNKEEVTKKFADLGDELEKKYPNVTVIIALSEE
# Target: MAP1LC3A, Q9H492
# Assay: median log2 fold change of GCK-ALFA target abundance (FLAG IP / Myc IP barcode read proportion) (log2 ratio); each designed protein is fused to an ALFA-tag nanobody in HEK293 cells to bring the named protein to FLAG-tagged glucokinase (GCK); Myc marks an untargeted standard; higher = target protein stabilised (more abundant)
# Conditions: target protein: 3xFLAG-MCP-GCK-ALFA reporter; HEK293 landing pad (RPLP)
# Summary of the method: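 Sequencing of reverse-transcribed, amplified circular RNA barcodes from anti-FLAG and anti-Myc immunoprecipitates provided the readout for an ALFA-nanobody-fused binder library recombined into HEK293 landing-pad cells. Those cells were induced with 2 μg mL^−1 doxycycline, transfected with a plasmid expressing a FLAG-tagged target and a Myc-tagged standard, and lysed after 48 h. Target abundance is the per-binder median log2 ratio of FLAG to Myc barcode read proportions. Only barcodes at a proportion of ≥10^−7 in both replicates and binders with ≥3 barcodes per replicate were kept, with a 10^−6 pseudocount added before the two replicates were pooled.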
row,Binder,median log2 fold change
1,B1,-0.32
2,B2,0.226
3,B3,-0.0273
4,B4,-0.121
5,B5,0.24
6,B6,-0.0822
7,B7,-0.122
8,B8,0.256
9,B9,0.158
10,B10,0.0134
11,B11,-0.0511
12,B12,-0.0559
13,B13,0.18
14,B14,0.0528
15,B15,0.306
16,B16,0.166
17,B17,0.252
18,B18,0.203
19,B19,0.0494
